Data: patent publication US10988516B2, “Methods and compositions for treating inflammation” (UTI Limited Partnership, priority 2012, dated 2021)

Legend:
naive 8.3-CD8+ T-cells = experiment: Agonistic activity of peptides on naive 8.3-CD8+ T-cells (CD44/CD69 expression); conditions: naive 8.3-CD8+ T-cells cultured with peptide for 24 h
BacIYL-pulsed targets = experiment: Killing of peptide-pulsed targets by differentiated 8.3-CTL; assay type: cell-based; conditions: differentiated 8.3-cytotoxic T-lymphocytes
8.3-CD8+ T-cells = experiment: Antagonism assay of IGRP206-214-induced 8.3-CD8+ T-cell responses; conditions: peptide presented in isolation

| Substance | upregulation of CD44 and CD69 (naive 8.3-CD8+ T-cells) | killing of peptide-pulsed targets by 8.3-CTL (BacIYL-pulsed targets) | concentrations antagonizing IGRP206-214-induced responses (IFNγ secretion and proliferation) (8.3-CD8+ T-cells) |
| --- | --- | --- | --- |
| IGRP206-214: epitope expressed by pancreatic beta cells; positive control agonist of 8.3-CD8+ T-cells (VYLKTNVFL) [reference compound] | elicited upregulation of both CD44 and CD69 |  |  |
| IYLKTNVYL (listed as Bacteroides sp.) [BacIYL] | only able to induce CD69 upregulation | do not kill | above 1 uM |
